Hit rate of the full screen: of about 310,000 compounds, about 2,200 (0.71%) showed an effect of 50% or more. Effects have a minus sign here. Some of the results follow.

In this experiment the target is human ether-à-go-go-related gene (hERG) potassium channel (human, UniProt Q12809). The experiment can be described thus: primary screen, population patch clamp on CHO cells stably expressing hERG.
Sequence of human ether-à-go-go-related gene (hERG) potassium channel (Q12809 whole entry, looked up): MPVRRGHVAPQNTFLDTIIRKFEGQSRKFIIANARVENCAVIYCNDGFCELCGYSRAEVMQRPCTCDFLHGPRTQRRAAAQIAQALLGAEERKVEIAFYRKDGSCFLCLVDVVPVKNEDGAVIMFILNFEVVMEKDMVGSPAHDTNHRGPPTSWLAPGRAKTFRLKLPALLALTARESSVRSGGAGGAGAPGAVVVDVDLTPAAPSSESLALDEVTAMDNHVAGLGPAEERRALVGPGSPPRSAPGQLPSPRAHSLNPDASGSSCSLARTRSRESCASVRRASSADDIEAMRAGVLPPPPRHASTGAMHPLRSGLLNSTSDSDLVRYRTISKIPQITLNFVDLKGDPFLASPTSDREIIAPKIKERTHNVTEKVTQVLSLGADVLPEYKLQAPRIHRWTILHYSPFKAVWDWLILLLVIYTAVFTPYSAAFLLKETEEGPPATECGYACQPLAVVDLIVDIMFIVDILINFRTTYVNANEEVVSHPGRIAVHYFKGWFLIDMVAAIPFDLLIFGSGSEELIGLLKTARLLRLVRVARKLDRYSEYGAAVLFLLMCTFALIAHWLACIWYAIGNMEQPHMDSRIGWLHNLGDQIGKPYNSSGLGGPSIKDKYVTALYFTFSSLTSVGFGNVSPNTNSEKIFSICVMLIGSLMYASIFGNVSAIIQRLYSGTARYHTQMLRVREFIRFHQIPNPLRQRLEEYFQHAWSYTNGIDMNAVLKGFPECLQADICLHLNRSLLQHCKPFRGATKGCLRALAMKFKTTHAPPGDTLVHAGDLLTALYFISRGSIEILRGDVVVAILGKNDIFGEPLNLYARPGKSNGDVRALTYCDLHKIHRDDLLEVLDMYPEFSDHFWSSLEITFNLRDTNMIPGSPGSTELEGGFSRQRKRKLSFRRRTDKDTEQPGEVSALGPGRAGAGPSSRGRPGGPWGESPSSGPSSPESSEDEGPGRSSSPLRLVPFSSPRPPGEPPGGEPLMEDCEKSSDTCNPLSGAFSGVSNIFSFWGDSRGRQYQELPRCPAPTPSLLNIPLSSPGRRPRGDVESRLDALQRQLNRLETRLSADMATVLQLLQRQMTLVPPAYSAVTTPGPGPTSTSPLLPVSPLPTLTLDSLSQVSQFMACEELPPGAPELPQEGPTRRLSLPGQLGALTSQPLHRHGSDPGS
Regarding `CCN1/C(=C/c2ccc3ccc(C)cc3[n+]2CC)Sc2ccccc21.[I-]`, the “hERG current change (%, negative = inhibition) at 1uM” value is -63.6%.

Regarding `COc1cc(OC)nc(Oc2cc(C=O)ccc2OC)n1`, the “hERG current change (%, negative = inhibition) at 1uM” value amounted to 1.31%.

`O=C(NC(=O)c1ccccc1)OCCN1C(=O)c2ccccc2C1=O`: the “hERG current change (%, negative = inhibition) at 1uM” value stood at 0.938%.

For `CCC(CC)NC(=O)/C=C/c1cccc([N+](=O)[O-])c1`, the “hERG current change (%, negative = inhibition) at 1uM” value worked out at 5.37%.

As to `Cc1cccc([N+](=O)[O-])c1NC(=O)COC(=O)C1CCCO1` (stereo not shown), the “hERG current change (%, negative = inhibition) at 1uM” value was found to be 10.3%.

Take `COc1ccc(-c2nn(-c3ccccc3)cc2/C=C/C(=O)N2CCOCC2)cc1OC`: the “hERG current change (%, negative = inhibition) at 1uM” value is on record as 4.52%.

With `O=C(Nc1ccc(N2CCCCC2)cc1)c1ccc([N+](=O)[O-])o1`, the “hERG current change (%, negative = inhibition) at 1uM” value was determined as 9.19%.

With `CCOc1ccc(-c2nc(CS(=O)(=O)CC(=O)NCc3ccc(F)cc3)c(C)o2)cc1`, the “hERG current change (%, negative = inhibition) at 1uM” value amounted to 20.3%.

As for `Cc1ccc(S(C)(=O)=O)cc1S(=O)(=O)Nc1cccc(Cl)c1`, the “hERG current change (%, negative = inhibition) at 1uM” value is on record as 6.69%.

On to `COc1cc(S(=O)(=O)Nc2cccc(C)c2)ccc1N=Cc1c(C)[nH]n(-c2ccccc2)c1=O`, for which the “hERG current change (%, negative = inhibition) at 1uM” value amounted to 10.4%.

Turning to `CC1CC2(O)c3nonc3CCC2N1O` (stereo not shown), the “hERG current change (%, negative = inhibition) at 1uM” value is recorded as -1.14%.

In the case of `CSc1ccccc1-c1nnc(NC(=O)Cc2ccccc2)o1`, the “hERG current change (%, negative = inhibition) at 1uM” value came to 12.8%.

`O=C(Nc1ccccn1)c1ccc(=O)[nH]n1`: the “hERG current change (%, negative = inhibition) at 1uM” value was 10.4%.

For `O=C(Cn1nnc(-c2cccc(C(F)(F)F)c2)n1)N1CCCCCC1`, the “hERG current change (%, negative = inhibition) at 1uM” value was found to be 6.45%.

Take `COc1ccc(N2CCN(c3ccc(NC(=O)c4ccc5c(c4)OCO5)cc3C#N)CC2)cc1`: the “hERG current change (%, negative = inhibition) at 1uM” value came out at 10.4%.

For `CCn1c(C)c(C)c2cc(C(=O)N3CCN(c4ccccc4)CC3)ccc21`, the “hERG current change (%, negative = inhibition) at 1uM” value is 13.5%.

In the case of `CCNS(=O)(=O)c1ccc(NS(=O)(=O)c2cc(C)ccc2C)cc1`, the “hERG current change (%, negative = inhibition) at 1uM” value stood at 2.05%.

With `CCOc1ccc(S(=O)(=O)Nc2ccc(C(=O)NCc3ccncc3)cc2)cc1`, the “hERG current change (%, negative = inhibition) at 1uM” value is recorded as 1.96%.

Regarding `COC(=O)c1sc(NC(=O)COc2ccccc2)nc1C`, the “hERG current change (%, negative = inhibition) at 1uM” value was 3.47%.

For `O=C(c1cccc([N+](=O)[O-])c1)N1CCN(c2ncccn2)CC1`, the “hERG current change (%, negative = inhibition) at 1uM” value was -5.31%.

In the case of `C=CCOc1cccc(/C=N/NC(=O)CN2CCCCC2)c1`, the “hERG current change (%, negative = inhibition) at 1uM” value is listed as -4.04%.

Regarding `O=C(NCc1ccccc1)Nc1cccn(Cc2ccccc2F)c1=O`, the “hERG current change (%, negative = inhibition) at 1uM” value is 10.8%.

As to `Cc1ccc(F)c(CNC(=O)C2CCC(=O)N(Cc3ccccn3)C2)c1F` (stereo not shown), the “hERG current change (%, negative = inhibition) at 1uM” value came to 16.3%.

Turning to `O=C(NCc1ccccn1)c1cccs1`, the “hERG current change (%, negative = inhibition) at 1uM” value is reported as 16.1%.

For the compound `CCCN1CCN(CC(=O)Nc2nc3ccccc3s2)CC1`, the “hERG current change (%, negative = inhibition) at 1uM” value is listed as -17.9%.
